Over roughly 33,000 sequences, “E-score (-0.5 to 0.5)” has its median near -0.054; the highest 2% begin near 0.35. The list shows a part of the results.

The source of these data is the supplement of paper PMC3334620.

The test addresses T1, Stb5 (UniProt P38699).
T1 sequence: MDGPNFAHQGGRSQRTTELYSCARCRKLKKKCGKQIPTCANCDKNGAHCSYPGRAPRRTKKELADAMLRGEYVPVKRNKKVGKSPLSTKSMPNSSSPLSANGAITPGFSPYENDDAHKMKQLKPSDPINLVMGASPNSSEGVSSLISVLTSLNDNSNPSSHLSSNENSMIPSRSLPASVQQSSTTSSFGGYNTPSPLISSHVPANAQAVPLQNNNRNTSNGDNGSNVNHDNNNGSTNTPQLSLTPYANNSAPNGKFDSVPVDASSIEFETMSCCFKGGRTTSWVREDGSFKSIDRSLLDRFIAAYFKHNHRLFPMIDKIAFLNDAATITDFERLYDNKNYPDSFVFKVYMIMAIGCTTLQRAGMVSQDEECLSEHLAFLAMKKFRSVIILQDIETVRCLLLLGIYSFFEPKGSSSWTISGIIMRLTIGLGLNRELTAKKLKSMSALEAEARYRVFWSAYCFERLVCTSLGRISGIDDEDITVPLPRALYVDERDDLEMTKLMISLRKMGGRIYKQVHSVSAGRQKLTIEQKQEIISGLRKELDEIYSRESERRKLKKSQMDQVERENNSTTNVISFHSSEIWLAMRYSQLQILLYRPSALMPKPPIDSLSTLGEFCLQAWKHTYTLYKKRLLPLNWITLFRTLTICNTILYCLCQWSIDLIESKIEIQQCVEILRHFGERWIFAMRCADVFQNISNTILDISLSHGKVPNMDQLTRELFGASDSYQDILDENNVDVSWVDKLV
The test can be described thus: PBM E-score (8-mer binding enrichment) (E-score (-0.5 to 0.5)); higher = stronger / more preferred TF binding; most listed sequences are background and not binding sites. The conditions noted are these: protein concentration: 200 nM; construct: GST-full length. The essentials:
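Universal all-10-mer Agilent arrays, double-stranded by primer extension on fresh or once-stripped slides, were probed with about 100-200 nM GST-tagged yeast transcription factors made by PURExpress. Fluorescent anti-GST detected bound protein, and masliner normalised the scans. E-scores from the Universal PBM Analysis Suite were given to each ungapped eight-base word pooled with its reverse complement.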
For the sequence CGGATGCA, the “PBM E-score” value worked out at 0.163.

As to GAATTTGC, the “PBM E-score” value was -0.0561.

Consider GGTGAGAC, for which the “PBM E-score” value is -0.00101.

On to AGTCTTCC, for which the “PBM E-score” value is -0.174.

On to ACTAAAGT, for which the “PBM E-score” value was -0.082.

On to AGGAAAGC, for which the “PBM E-score” value was -0.0135.

As to CGACAATC, the “PBM E-score” value is -0.0337.

GAACTCAC: the “PBM E-score” value was -0.221.

As to CTTGAAGC, the “PBM E-score” value is -0.0308.

For the sequence ATAGGCGC, the “PBM E-score” value stood at 0.0984.

As to CACCGTGC, the “PBM E-score” value amounted to 0.332.

In the case of CCCGGACC, the “PBM E-score” value worked out at 0.185.

For the sequence CCGCGGAA, the “PBM E-score” value was determined as 0.265.

In the case of CATAAAGA, the “PBM E-score” value is -0.292.

Turning to CTACGAAA, the “PBM E-score” value was -0.063.

On to AGCACCAC, for which the “PBM E-score” value is -0.0526.

With CTCTGACA, the “PBM E-score” value was -0.192.

Take AATACCGT: the “PBM E-score” value is 0.438.

Regarding TCAGTACA, the “PBM E-score” value was -0.173.

For the sequence GCCGTGCC, the “PBM E-score” value was 0.206.

Take ATGTTCCC: the “PBM E-score” value turned out to be 0.143.

Regarding AACTGCAA, the “PBM E-score” value was -0.186.

Turning to AAGCCCTT, the “PBM E-score” value is -0.131.

For the sequence AGGGGACG, the “PBM E-score” value was -0.114.

Take CATACCCA: the “PBM E-score” value is -0.212.

Take CTGGTTCA: the “PBM E-score” value was -0.266.

Take AGAACAAC: the “PBM E-score” value was -0.129.

On to CGACACTA, for which the “PBM E-score” value is 0.159.

For CATTTATA, the “PBM E-score” value turned out to be 0.138.

Regarding GCCGTGGA, the “PBM E-score” value is 0.153.

In the case of GACGCAGC, the “PBM E-score” value is -0.159.

In the case of AATAGGAG, the “PBM E-score” value is -0.0903.

In the case of TAGAAAGA, the “PBM E-score” value is -0.0426.

For the sequence AATTGAAG, the “PBM E-score” value is -0.0893.

As for AGAAGCGC, the “PBM E-score” value was found to be 0.141.

Take ACTAGGAG: the “PBM E-score” value is -0.0619.

Take ACTCTTAC: the “PBM E-score” value was -0.2.

As to CGGTCCGA, the “PBM E-score” value was 0.389.

In the case of AAGTGTAG, the “PBM E-score” value was -0.142.

In the case of AAAAAGTG, the “PBM E-score” value was -0.115.

As for ACAAGCAC, the “PBM E-score” value was -0.00207.

Consider GTGTACGA, for which the “PBM E-score” value is -0.0421.

As to GCCCAGAC, the “PBM E-score” value is -0.068.

As for ATAGTGAT, the “PBM E-score” value is -0.197.

Regarding CCTGAAAA, the “PBM E-score” value is -0.00317.

Regarding CCGGTCGC, the “PBM E-score” value was 0.18.

Turning to AATAAGTA, the “PBM E-score” value was -0.0717.

As for GCGCCCTA, the “PBM E-score” value is 0.053.

Regarding AGATTTGA, the “PBM E-score” value was -0.12.

For the sequence GGGGTTCA, the “PBM E-score” value was determined as 0.0443.

For AGTCCAAC, the “PBM E-score” value is -0.163.

Consider AGTCTTGC, for which the “PBM E-score” value is -0.197.

As for ATCTTTCA, the “PBM E-score” value amounted to 0.018.

Consider GAGATTCC, for which the “PBM E-score” value was found to be 0.09.

Take AATCTTCC: the “PBM E-score” value was -0.0895.

For ATGTTAGG, the “PBM E-score” value was -0.219.

Consider AGAAGTCT, for which the “PBM E-score” value is -0.259.

For the sequence CCATTAGA, the “PBM E-score” value was -0.0178.

Regarding ATCTAATG, the “PBM E-score” value was determined as 0.00365.

CTACATTA: the “PBM E-score” value was -0.28.

Take CACAAACA: the “PBM E-score” value was 0.0111.

Regarding AGAACACC, the “PBM E-score” value came out at 0.225.

For the sequence ACACAAGA, the “PBM E-score” value was -0.139.

Regarding ATTACGAC, the “PBM E-score” value was 0.0228.

For the sequence GAGTCCCA, the “PBM E-score” value is -0.0129.

AGTTAGGG: the “PBM E-score” value was -0.112.

As for CCCGTTCC, the “PBM E-score” value amounted to 0.222.

For the sequence AAACTTAA, the “PBM E-score” value is -0.129.

On to ACCGACTG, for which the “PBM E-score” value was determined as 0.264.

For AACAAAAC, the “PBM E-score” value is 0.00124.

For the sequence ATAACAGA, the “PBM E-score” value was -0.12.

Take CAGTAGGA: the “PBM E-score” value was -0.104.

AAATCCTT: the “PBM E-score” value is 0.0218.

As to AGGGTTGA, the “PBM E-score” value is -0.255.

Consider CACCGGTC, for which the “PBM E-score” value came out at 0.337.

In the case of TACCGGCA, the “PBM E-score” value turned out to be 0.31.

Regarding CCCGGGCA, the “PBM E-score” value was 0.252.

Turning to CTCGAATC, the “PBM E-score” value is -0.166.

AGACCGGG: the “PBM E-score” value worked out at 0.311.

On to ACGCAAGG, for which the “PBM E-score” value is -0.0747.

As to CTACCTCA, the “PBM E-score” value was -0.148.

Regarding AGCGCTAG, the “PBM E-score” value is -0.0224.

Take CATGTCCG: the “PBM E-score” value was found to be 0.273.

On to CCGGACGA, for which the “PBM E-score” value was 0.129.

For CCTTCAGA, the “PBM E-score” value was -0.186.

Regarding CACACGCG, the “PBM E-score” value is -0.0214.

On to AATTGATG, for which the “PBM E-score” value was determined as 0.0383.

For the sequence ATGACGTC, the “PBM E-score” value was found to be 0.0681.

Regarding AACAGGTT, the “PBM E-score” value is -0.0872.

Take CAATCAGC: the “PBM E-score” value was -0.0863.

In the case of AGTTCATG, the “PBM E-score” value was -0.143.

For the sequence CATGCGCC, the “PBM E-score” value amounted to 0.106.

Turning to CCCAGCGC, the “PBM E-score” value was -0.0593.

Take AATTGCAA: the “PBM E-score” value was -0.0848.

As to AGACGTGA, the “PBM E-score” value is -0.276.

Consider CCGATAGG, for which the “PBM E-score” value came out at 0.285.

Take AACTGAGC: the “PBM E-score” value was -0.0713.

As for ATCAATGG, the “PBM E-score” value was -0.04.

Turning to CGTCATGC, the “PBM E-score” value is 0.109.

As to AGACATGG, the “PBM E-score” value was -0.186.

Turning to GTTTGTGA, the “PBM E-score” value was -0.166.

Regarding AGGAGAAT, the “PBM E-score” value is -0.0644.

Consider AGTTGATC, for which the “PBM E-score” value was -0.132.

On to ACTGCCAA, for which the “PBM E-score” value is -0.0471.

With ACGAACGA, the “PBM E-score” value was -0.143.

Take AGAATATC: the “PBM E-score” value worked out at 0.148.

Take AAGGTCTC: the “PBM E-score” value was -0.26.

Take TTCGCAAA: the “PBM E-score” value worked out at 0.0798.

As for AACCCCTG, the “PBM E-score” value was found to be 0.118.

As for ATCTAAAC, the “PBM E-score” value is 0.159.
